Reference: patent publication US12221481B2, “CD19 binding molecules and uses thereof” (Novartis AG, priority 2019, dated 2025)
Where a chain is given by its changes, count along the chain named. Marks after values point to notes of the source that are not given here.

B1: CD3hi TSP1: Trispecific binding molecule: NEG258-based CD19 Fab, CD3hi anti-CD3 scFv, CD58 IgV domain, knob-into-hole silenced hIgG1 Fc (antibody)
heavy: QVQLVQSGAEVKKPGASVKVSCKASGYTFTTYWIQWVRQAPGQRLEWMGAVYPGDADTRYTQKFQGRVTLTADRSASTAYMELSSLRSEDTAVYYCGRDAGLEYYALDYWGQGTLVTVSSASTKGPSVFPLAPSSKSTSGGTAALGCLVKDYFPEPVTVSWNSGALTSGVHTFPAVLQSSGLYSLSSVVTVPSSSLGTQTYICNVNHKPSNTKVDKRVEPKSCGGGGSGGGGSEVQLVESGGGLVQPGGSLKLSCAASGFTFNTYAMNWVRQASGKGLEWVGRIRSKYNNYATYYADSVKDRFTISRDDSKSTLYLQMNSLKTEDTAVYYCVRHGNFGNSYVSWFAYWGQGTLVTVSSGGGGSGGGGSGGGGSGGGGSQAVVTQEPSLTVSPGGTVTLTCRSSTGAVTTSNYANWVQQKPGQAPRGLIGGTNKRAPWTPARFSGSLLGDKAALTLSGAQPEDEAEYFCALWYSNLWVFGGGTKLTVLGGGGSDKTHTCPPCPAPELLGGPSVFLFPPKPKDTLMISRTPEVTCVVVAVSHEDPEVKFNWYVDGVEVHNAKTKPREEQYASTYRVVSVLTVLHQDWLNGKEYKCKVSNKALAAPIEKTISKAKGQPREPQVCTLPPSREEMTKNQVSLSCAVKGFYPSDIAVEWESNGQPENNYKTTPPVLDSDGSFFLVSKLTVDKSRWQQGNVFSCSVMHEALHNHYTQKSLSLSPGK
light: EIVMTQSPATLSVSPGERATLSCRASQDVGTAVAWYQQKPGQAPRLLIYWASTRHTGIPARFSGSGSGTEFTLTISSLQSEDFAVYFCQQYANFPLYTFGQGTKLEIKRTVAAPSVFIFPPSDEQLKSGTASVVCLLNNFYPREAKVQWKVDNALQSGNSQESVTEQDSKDSTYSLSSTLTLSKADYEKHKVYACEVTHQGLSSPVTKSFNRGEC
chain: SQQIYGVVYGNVTFHVPSNVPLKEVLWKKQKDKVAELENSEFRAFSSFKNRVYLDTVSGSLTIYNLTSSDEDEYEMESPNITDTMKFFLYVLESGGGGSDKTHTCPPCPAPELLGGPSVFLFPPKPKDTLMISRTPEVTCVVVAVSHEDPEVKFNWYVDGVEVHNAKTKPREEQYASTYRVVSVLTVLHQDWLNGKEYKCKVSNKALAAPIEKTISKAKGQPREPQVYTLPPCREEMTKNQVSLWCLVKGFYPSDIAVEWESNGQPENNYKTTPPVLDSDGSFFLYSKLTVDKSRWQQGNVFSCSVMHEALHNHYTQKSLSLSPGK
B2: CD3med TSP1: NEG258-based TBM with CD3med anti-CD3 scFv and CD58 IgV CD2-binding arm (antibody)
heavy: B1 heavy with S312N, L314A, Y347H, R401G, T409S, D449G, F467Y
light: B1 light
chain: B1 chain

What was measured:
[1] = system: Daudi-Luc Burkitt's lymphoma subcutaneous tumor; experiment: Daudi-Luc Burkitt's lymphoma subcutaneous tumor model, human PBMC adoptive transfer, NSG mice (Example 31); type: in vivo; conditions: for tumor regression: single IV administration; for Δ Body weight from initial (Mean ± SEM) Day 36 / Δ Tumor burden from initial (Mean) Day 36 / Regression: single dose IV; for Regression: Day 36
Protocol: On Day 0, Daudi-Luc cells were harvested and suspended in a 1:1 mixture of Hanks Balanced Salt Solution (HBSS) and Matrigel at a concentration of 50×10^6 cells/mL.
Tumor volume and body weights were recorded twice weekly. Tumor volume was measured by caliper.
On day 36 following Daudi-Luc implantation, 25% of animals from the Tumor+AdT control group were euthanized due to tumor volume.

[2] = system: OCI-LY-19 DLBCL subcutaneous tumor; experiment: OCI-LY-19 DLBCL subcutaneous tumor model in huCD34+ NSG mice, single dose, dose range finding (Example 30); conditions: for treatment associated body weight loss: across multiple dose levels
K562 target cells = experiment: RTCC against K562 lacking hCD19 (Example 22); type: cell-based; conditions: antigen-negative, E:T 1:1, 48 hour
Protocol: (§1) The purified TBMs were compared across multiple donor effector cells. Briefly, huCD19-expressing Nalm6 and Karpas422 target cells were engineered to overexpress firefly luciferase. Cells were harvested and resuspendend in RPMI medium (Invitrogen #11875-093) with 10% FBS. 5,000 target cells per well were plated in a flat-bottom 384-well plate. Human pan T effector cells were isolated via negative selection (Stemcell Technologies #17951) from two donors from cryopreserved PBMCs that were separated from a leukopak (Hemacare #PB001F-1) by Ficoll density gradient centrifugation. Purified T cells were then added to the plate to obtain a final E:T ratio of 3:1, 1:1, 1:3 or 1:5. Co-cultured cells were incubated with serial dilutions of all constructs and controls. For normalization, average maximum luminescence refers to target cells co-incubated with effector cells, but without any test construct. After an incubation of 48, 72 or 96 hr at 37° C., 5% CO2, OneGlo luciferase substrate (Promega #E6120) was added to the plate. Luminescence was measured on an Envision plate reader after a 10 minute incubation. Percent specific lysis was calculated using the following equation: Specific lysis (%)=(1−(sample luminescence/average maximum luminescence))*100
(§2) Nalm6 KO was generated from Nalm6 parental cell line by using CRISPR-CAS9 technology and was confirmed to lack hCD19 expression. […]

Nalm6 KO target cells = experiment: RTCC against Nalm6 KO lacking hCD19 (Example 22); type: cell-based, human; conditions: antigen-negative, E:T 1:1, 48 hour
Protocol: as §1, §2

Karpas422 target cells = experiment: Re-challenge RTCC assay, Karpas 422; type: cell-based, human; conditions: E:T 1:1, repeated target cell challenges
Protocol: OCI-LY-19 and Karpas422 target cells stably expressing firefly luciferase were plated in a Costar 6 well plate in T Cell Media (TCM). PBMCs previously isolated and cryopreserved from 2 Leukopak donors were thawed and Pan T cells were isolated (as described earlier). […] The plates were incubated for 4 days for OCI-LY-19 and 5 days for Karpas 422 cells. At the end of incubation, the killing of target cells was determined using the luminescence signal. The absolute T cell counts from each antibody treated condition was also determined. For the next round of rechallenge, it was ensured that the killing of target cells was equivalent across various antibody conditions. […] Additionally, a dose titration RTCC at a E:T of 1:1 and a concentration range of 2 nM-0.000001 nM was set-up using T cells from the different antibody treated conditions with a 4 day incubation used for each cell line. The killing of target cells was determined using the luminescence signal to generate dose response curves. At the end of the challenge, the above process was repeated once more for Karpas 422 and twice more for OCI-LY-19 cells.

Toledo target cells = experiment: RTCC against Toledo (Example 22); type: cell-based, human; conditions: E:T 1:1, 48 hour
Protocol: as §1
Nalm6 KO was generated from Nalm6 parental cell line by using CRISPR-CAS9 technology and was confirmed to lack hCD19 expression. Oci-Ly19, Toledo, Nalm6, Nalm6 KO and K562 target cells were engineered to overexpress firefly luciferase. RTCC assays were performed with the different cells lines according to the Materials and Methods described in Example 9, but with a final E:T ratio of 1:1 and a 48 hour incubation.

[3] = 0.01 mg/kg, single IV dose, Day 24
[4] = 0.03 mg/kg, single IV dose, Day 24
[5] = 0.03 mg/kg, single dose IV, Day 24
[6] = 0.1 mg/kg, single IV dose, Day 24
[7] = 0.1 mg/kg, single dose IV, Day 24
[8] = 0.3 mg/kg, single IV dose, Day 24
[9] = 0.3 mg/kg, single dose IV, Day 24
[10] = 1.0 mg/kg, single IV dose, Day 24
[11] = 1.0 mg/kg, single dose IV, Day 24

| Molecule | tumor regression ([1]; 0.1 mg/kg) [%] | Δ Body weight from initial (Mean ± SEM) Day 36 ([1]; 0.1 mg/kg) [%] | Δ Tumor burden from initial (Mean) Day 36 ([1]; 0.1 mg/kg) [mm^3] | Regression ([1]; 0.1 mg/kg) [%] | tumor regression ([1]; 0.3 mg/kg) [%] | Δ Body weight from initial (Mean ± SEM) Day 36 ([1]; 0.3 mg/kg) [%] | Δ Tumor burden from initial (Mean) Day 36 ([1]; 0.3 mg/kg) [mm^3] | Regression ([1]; 0.3 mg/kg) [%] | tumor regression ([1]; 1.0 mg/kg) [%] | Δ Body weight from initial (Mean ± SEM) Day 36 ([1]; 1.0 mg/kg) [%] | Δ Tumor burden from initial (Mean) Day 36 ([1]; 1.0 mg/kg) [mm^3] | Regression ([1]; 1.0 mg/kg) [%] | ΔT/ΔC [2, 3] [%] | ΔT/ΔC [2, 4] [%] | Δ Body weight from initial (Mean ± SEM) Day 24 ([2]; 0.03 mg/kg, single dose IV) [%] | Δ Tumor burden from initial (Mean ± SEM) Day 24 ([2]; 0.03 mg/kg, single dose IV) [mm^3] | ΔT/ΔC [2, 5] [%] | ΔT/ΔC [2, 6] [%] | Δ Body weight from initial (Mean ± SEM) Day 24 ([2]; 0.1 mg/kg, single dose IV) [%] | Δ Tumor burden from initial (Mean ± SEM) Day 24 ([2]; 0.1 mg/kg, single dose IV) [mm^3] | also measured |
| --- | --- | --- | --- | --- | --- | --- | --- | --- | --- | --- | --- | --- | --- | --- | --- | --- | --- | --- | --- | --- | --- |
| B1 | 87.52 | −0.506 ± 4.777 | −128.03 | 87.52 | 91.86 | 2.254 ± 2.975 | −134.39 | 91.86 | 90.08 | 5.423 ± 2.220 | −131.77 | 90.08 | 100 | 65.8 | −3.32 ± 1.63 | 695.0 ± 168.4 | 65.8 | 19.5 | −7.06 ± 3.02 | 205.9 ± 170.6 | ΔT/ΔC [2, 7]: 19.5* %; ΔT/ΔC [2, 8]: 0.05%; Δ Body weight from initial (Mean ± SEM) Day 24 ([2]; 0.3 mg/kg, single dose IV): −6.09 ± 2.34%; Δ Tumor burden from initial (Mean ± SEM) Day 24 ([2]; 0.3 mg/kg, single dose IV): −0.57 ± 95.0 mm^3; ΔT/ΔC [2, 9]: 0.05* %; tumor regression [2, 10]: 35.3%; Δ Body weight from initial (Mean ± SEM) Day 24 ([2]; 1.0 mg/kg, single dose IV): −1.96 ± 2.31%; Δ Tumor burden from initial (Mean ± SEM) Day 24 ([2]; 1.0 mg/kg, single dose IV): −91.6 ± 13.8 mm^3; Regression [2, 11]: 35.3* %; treatment associated body weight loss ([2]; single IV dose): treatment associated body weight loss; cytotoxic activity (target-independent killing) (K562 target cells): minimal activity; cytotoxic activity (target-independent killing) (Nalm6 KO target cells): minimal activity; retention of killing ability upon repeated challenges (Karpas422 target cells): better retain killing ability upon repeated challenges; cytotoxic activity (specific lysis) (Toledo target cells): showed cytotoxic activity; cytotoxic activity compared between constructs (Toledo target cells; statement made for the study as a whole): comparable cytotoxic activity to blinatumomab |
| B2 | 13.51 | 0.165 ± 2.561 | −19.77 | 13.51 | 85.13 | 3.214 ± 1.737 | −124.57 | 85.13 | 90.86 | 3.839 ± 1.597 | −132.92 | 90.86 | 100 | 90.3 | 4.8 ± 3.7 | 954.8 ± 180.1 | 90.3 | 79.8 | 0.3 ± 2.5 | 843.2 ± 196.5 | Δ Body weight from initial (Mean ± SEM) Day 24 ([2]; 0.01 mg/kg, single dose IV): 12.7 ± 1.8%; Δ Tumor burden from initial (Mean ± SEM) Day 24 ([2]; 0.01 mg/kg, single dose IV): 1139.3 ± 155.7 mm^3; ΔT/ΔC ([2]; 0.01 mg/kg, single dose IV, Day 24): 100%; ΔT/ΔC [2, 7]: 79.8%; ΔT/ΔC [2, 8]: 26.9%; Δ Body weight from initial (Mean ± SEM) Day 24 ([2]; 0.3 mg/kg, single dose IV): −3.0 ± 2.2%; Δ Tumor burden from initial (Mean ± SEM) Day 24 ([2]; 0.3 mg/kg, single dose IV): 284.0 ± 200.9 mm^3; ΔT/ΔC [2, 9]: 26.9%; ΔT/ΔC [2, 10]: 0.05%; Δ Body weight from initial (Mean ± SEM) Day 24 ([2]; 1.0 mg/kg, single dose IV): 3.1 ± 2.5%; Δ Tumor burden from initial (Mean ± SEM) Day 24 ([2]; 1.0 mg/kg, single dose IV): 35.5 ± 57.6 mm^3; ΔT/ΔC [2, 11]: 0.05* %; treatment associated body weight loss ([2]; single IV dose): treatment associated body weight loss; cytotoxic activity (target-independent killing) (K562 target cells): minimal activity; cytotoxic activity (target-independent killing) (Nalm6 KO target cells): minimal activity; retention of killing ability upon repeated challenges (Karpas422 target cells): next best; cytotoxic activity (specific lysis) (Toledo target cells): showed cytotoxic activity |
